Assay in all cases: CLSI broth microdilution.
Compound in assay [1]: CCC(C)n1ncn(-c2ccc(N3CCN(c4ccc(OCC5COC(Cn6cncn6)(c6ccc(Cl)cc6Cl)O5)cc4)CC3)cc2)c1=O [itraconazole]
Compound in assay [2]: OC(Cn1cncn1)(Cn1cncn1)c1ccc(F)cc1F [fluconazole]
Compound in assay [3]: CCCCCOc1ccc(-c2ccc(-c3ccc(C(=O)N[C@H]4C[C@@H](O)[C@@H](O)NC(=O)[C@@H]5[C@@H](O)[C@@H](C)CN5C(=O)[C@H]([C@@H](C)O)NC(=O)[C@H]([C@H](O)[C@@H](O)c5ccc(O)cc5)NC(=O)[C@@H]5C[C@@H](O)CN5C(=O)[C@H]([C@@H](C)O)NC4=O)cc3)cc2)cc1 [anidulafungin]
Compound in assay [4]: Nc1[nH]c(=O)ncc1F [flucytosine]
Compound in assay [5]: CCCCCOc1ccc(-c2cc(-c3ccc(C(=O)N[C@H]4C[C@@H](O)[C@@H](O)NC(=O)[C@@H]5[C@@H](O)[C@@H](C)CN5C(=O)[C@H]([C@H](O)CC(N)=O)NC(=O)[C@H]([C@H](O)[C@@H](O)c5ccc(O)c(OS(=O)(=O)O)c5)NC(=O)[C@@H]5C[C@@H](O)CN5C(=O)[C@H]([C@@H](C)O)NC4=O)cc3)no2)cc1 [micafungin]
Compound in assay [6]: C[C@@H]1[C@H](O)[C@@H](C)/C=C/C=C/C=C/C=C/C=C/C=C/C=C/[C@H](O[C@@H]2O[C@H](C)[C@@H](O)[C@H](N)[C@@H]2O)C[C@@H]2O[C@](O)(C[C@@H](O)C[C@@H](O)[C@H](O)CC[C@@H](O)C[C@@H](O)CC(=O)O[C@H]1C)C[C@H](O)[C@H]2C(=O)O [amphotericin B]
Compound in assay [7]: CC[C@H](C)C[C@H](C)CCCCCCCCC(=O)N[C@H]1C[C@@H](O)[C@@H](NCCN)NC(=O)[C@@H]2[C@@H](O)CCN2C(=O)[C@H]([C@H](O)CCN)NC(=O)[C@H]([C@H](O)[C@@H](O)c2ccc(O)cc2)NC(=O)[C@@H]2C[C@@H](O)CN2C(=O)[C@H]([C@@H](C)O)NC1=O [caspofungin]
Compound in assay [8]: C[C@@H](c1ncncc1F)[C@](O)(Cn1cncn1)c1ccc(F)cc1F [voriconazole]
Compound in assay [9]: CC[C@@H]([C@H](C)O)n1ncn(-c2ccc(N3CCN(c4ccc(OC[C@@H]5CO[C@@](Cn6cncn6)(c6ccc(F)cc6F)C5)cc4)CC3)cc2)c1=O [posaconazole]

MIC of invasive clinical C. tropicalis isolates, CLSI broth microdilution (fluconazole 0.12-256 mg/L, up to 1,024 for the azole-resistant cluster and its neighbour group; other ranges not stated); higher = less susceptible. Call: susceptible or wild type [S] / resistant or non-wild type [R] by CLSI breakpoints or cut-offs; intermediate and dose-dependent carry no call. '<=' and '>=' at the end values are inferred; the source marks only some of them. Isolates are numbered anew.

For orientation: MIC means the least concentration at which growth counts as inhibited.

For the test system “Candida tropicalis isolate 185 (ERG11 copies: 2, Erg11p: no key change)”, the MIC is 0.25 mg/L [S] in assay [1]; 2 mg/L [S] in assay [2]; 0.12 mg/L [S] in assay [3]; no more than 0.06 mg/L [S] in [4]; 0.06 mg/L [S] in assay [5]; 1 mg/L [S] in [6]. The values for the MIC in assay [7], in assay [8] and in [9] were 0.12 mg/L [S], 0.25 µg/mL and 0.5 mg/L [R], respectively.

On to “Candida tropicalis isolate 445 (ERG11 copies: 5, Erg11p: Y132F, S154F (heterozygous))”, for which the MIC was 0.5 mg/L [S] in assay [1]; 256 mg/L [R] in [2]; 0.12 mg/L [S] in assay [3]; no more than 0.06 mg/L [S] in assay [4]; 0.03 mg/L [S] in [5]; 1 mg/L [S] in [6]. The MIC was 0.06 mg/L [S] in assay [7], no less than 8 mg/L [R] in [8] and 1 mg/L [R] in assay [9].

Take “Candida tropicalis isolate 144 (ERG11 copies: 2, Erg11p: no key change)”: the MIC in assay [1] was 0.25 mg/L [S]; in [2], 2 mg/L [S]; in [3], 0.12 mg/L [S]; in assay [4], no more than 0.06 mg/L [S]; in [5], 0.03 mg/L [S]; in assay [6], 0.5 mg/L [S]. The MIC in assay [7] came out at 0.03 mg/L [S]; in assay [8], 0.25 µg/mL; in assay [9], 0.25 mg/L [S].

For the test system “Candida tropicalis isolate 256 (ERG11 copies: 2, Erg11p: no key change)”, the minimum inhibitory concentration (MIC) in [1] amounted to 0.25 mg/L [S]; in assay [2], 1 mg/L [S]; in [3], 0.12 mg/L [S]; in [4] it was 0.12 mg/L [S]; in assay [5], 0.03 mg/L [S]; in assay [6], 0.5 mg/L [S]. In addition, the results for the MIC in assay [7], in assay [8] and in assay [9] were 0.25 mg/L [S], 0.12 mg/L [S] and 0.25 mg/L [S], respectively.

Turning to “Candida tropicalis isolate 5 (ERG11 copies: 6, Erg11p: Y132F, S154F (heterozygous))”, the minimum inhibitory concentration (MIC) in assay [1] was 0.5 mg/L [S]; in [2], 512 mg/L [R]; in assay [3], no more than 0.015 mg/L [S]; in assay [4], no more than 0.06 mg/L [S]; in [5] it was 0.03 mg/L [S]; in [6], 0.12 mg/L [S]. Besides, the minimal inhibitory concentration (MIC) is 0.03 mg/L [S] in [7], greater than 8 mg/L [R] in assay [8] and 0.5 mg/L [R] in [9].

“Candida tropicalis isolate 170 (ERG11 copies: 2, Erg11p: Y132F, S154F (homozygous))”: the MIC in assay [1] was 0.5 mg/L [S]; in [2], greater than 256 mg/L [R]; in assay [3] it was 0.25 mg/L [S]; in assay [4] it was 0.12 mg/L [S]; in assay [5], 0.03 mg/L [S]; in assay [6], 1 mg/L [S]. In addition, the MIC in assay [7] is 0.12 mg/L [S]; in [8], greater than 8 mg/L [R]; in [9], 0.5 mg/L [R].

As for “Candida tropicalis isolate 283 (ERG11 copies: 2, Erg11p: no key change)”, the MIC in assay [1] is 0.12 mg/L [S]; in assay [2], 2 mg/L [S]; in assay [3] it was 0.12 mg/L [S]; in assay [4], no more than 0.06 mg/L [S]; in assay [5], 0.03 mg/L [S]; in assay [6], 1 mg/L [S]. For the same test system, the MIC was 0.03 mg/L [S] in assay [7], 0.12 mg/L [S] in [8] and 0.25 mg/L [S] in assay [9].

Consider “Candida tropicalis isolate 1 (ERG11 copies: 2, Erg11p: no key change)”, for which the minimum inhibitory concentration (MIC) in assay [1] is 0.25 mg/L [S]; in assay [2] it was 2 mg/L [S]; in [3] it was 0.12 mg/L [S]; in assay [4] it was no more than 0.06 mg/L [S]; in [5], 0.06 mg/L [S]; in assay [6], 0.5 mg/L [S]. Moreover, the minimum inhibitory concentration (MIC) in assay [7] turned out to be 0.12 mg/L [S]; in assay [8], 0.12 mg/L [S]; in assay [9], 0.25 mg/L [S].

With “Candida tropicalis isolate 314 (ERG11 copies: 2, Erg11p: no key change)”, the MIC is 0.12 mg/L [S] in assay [1]; 1 mg/L [S] in [2]; no more than 0.015 mg/L [S] in assay [3]; no more than 0.06 mg/L [S] in assay [4]; 0.015 mg/L [S] in [5]; 1 mg/L [S] in [6]. Moreover, the MIC in assay [7] worked out at 0.015 mg/L [S]; in assay [8], 0.06 mg/L [S]; in assay [9], 0.06 mg/L [S].

The values are drawn from the supplement of paper PMC10724272.
